Source: PubChem BioAssay (NCATS)
Some of the results follow. Further columns of the screen follow, without active or inactive calls. The note in brackets gives the kind of curve behind each potency; many fits are weak.

Assay: qHTS drug screen for cell cycle checkpoint inhibitors in PARPi-resistant BRCA-mutant ovarian cancer cell lines. (AID 1963452)
Details: PEO1/OlaR viability, CellTiter-Glo luminescence, 96 h
Outline: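 PEO1, PEO4 and PEO1/OlaR ovarian cancer cells, 600 per well, exposed 96 h at 37C to a dilution series. Viability read by CellTiter-Glo luminescence, normalized to DMSO and empty wells; activity summarized as Z-AUC.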

[1] = measured here: PEO1 parental viability
Tags describe the fitted curve by direction and shape.

| Structure (SMILES) | AC50 [1] | AC50 (measured here: PEO4 viability) |
| --- | --- | --- |
| Cc1ccc(NC(=O)c2ccc(CN3CCNCC3)cc2)cc1Nc1nccc(-c2cccnc2)n1 | 1.55 µM [falling, partial curve, poor fit] | 21.9 µM [falling, single point] |
| Cn1ncc(Cl)c1-c1cc(C(=O)N[C@H](CN)Cc2cccc(F)c2)sc1Cl | 13.8 µM [falling, partial curve] | 17.4 µM [falling, single point] |
| Cc1ncsc1-c1ccc([C@H](C)NC(=O)[C@@H]2C[C@@H](O)CN2C(=O)[C@@H](NC(=O)COCCCOCCNC(=O)C[C@@H]2N=C(c3ccc(Cl)cc3)c3c(sc(C)c3C)-n3c(C)nnc32)C(C)(C)C)cc1 | 0.0871 µM [falling, full curve] | 0.0436 µM [falling, full curve] |
| CC(=O)N(O)CCCCCNC(=O)CCC(=O)N(O)CCCCCNC(=O)CCC(=O)N(O)CCCCCN | 7.76 µM [falling, partial curve, poor fit] | 5.49 µM [falling, partial curve] |
| NC(=O)[C@H]1CCS[C@@H]2C[C@]3(CCCN3C(=O)Cc3ccc(NC(=O)COc4ccc(Cl)cc4Cl)cc3)C(=O)N12 | 2.45 µM [falling, full curve] | 6.16 µM [falling, partial curve] |
| c1cc(-c2cnn3cc(-c4ccc(N5CCNCC5)cc4)cnc23)c2cccnc2c1 | 21.9 µM [falling, partial curve, poor fit] | 19.5 µM [falling, single point] |
